The record followed here is the supplement of paper PMC10600219.

Where a name gives a salt, the structure may show the parent alone. Whole data set: some 2,800 compounds, median “cell viability relative to vehicle” near 0.98, cut for the lowest 2% near 0.45. The list shows a part of the results.

For the test, the system named is NCI-H2228 alectinib-DTP. The test is described as follows: cell viability relative to vehicle (fraction of vehicle); NCI-H2228 is an ALK-positive lung cancer line and DTP means drug-tolerant persister; higher = less growth inhibition. The settings on record: 100 nM; treatment time 6 days. The essentials: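 The 3114-agent TargetMol anti-cancer compound library was tested at 100 nM for 6 days on parental NCI-H2228 cells and on persister cells derived with 1000 nM of a targeted drug for 13 days. ATP readout by the CellTiter-Glo 3D Cell Viability Assay gave cell viability relative to DMSO vehicle-treated cells.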
Compound `CC(C)(C)c1ccc(C(=O)CCCN2CCC(OC(c3ccccc3)c3ccccc3)CC2)cc1` [Ebastine] returned a cell viability of 0.96. Then `COc1cc(/C=C2/SC(=S)NC2=O)ccc1OCC(=O)O`, with 0.991. Then `O=c1ccn([C@@H]2O[C@H](CO)[C@@H](O)[C@H]2O)c(=O)[nH]1` [Uridine], with 0.771. Compound `CC(C)n1c(/C=C/C(O)CC(O)CC(=O)O)c(-c2ccc(F)cc2)c2ccccc21` (stereo unspecified) [Fluvastatin sodium salt] yielded a cell viability of 0.869.

On to `O=c1c(O[C@@H]2O[C@H](CO)[C@@H](O)[C@H](O)[C@H]2O)c(-c2ccc(O)c(O)c2)oc2cc(O)cc(O)c12` [Isoquercitrin], for which the cell viability came out at 1.13. `O=c1c(O[C@@H]2O[C@H](CO)[C@@H](O)[C@H](O)[C@H]2O)c(-c2ccc(O)c(O)c2)oc2cc(O)cc(O)c12` gave a cell viability of 0.978. `N#CC(c1ccnc(OCc2ccc(CN3CCOCC3)cc2)n1)c1nc2ccccc2s1` (stereo unspecified) had a cell viability of 0.973.

`C[C@H](CC(=O)C[C@@H](C)[C@H]1C[C@H](O)[C@@]2(C)C3=C(C(=O)C[C@]12C)[C@@]1(C)CCC(=O)C(C)(C)[C@@H]1C[C@@H]3O)C(=O)O` [Ganoderic acid A]: the cell viability stood at 1.03. In turn, `COc1nnc2ccc(N3CCC(c4ccc(OCCN5CCN(C)C(=O)[C@H]5C)cc4)CC3)nn12.O=C(O)c1ccc2cc(O)ccc2c1` [AZD5153 6-Hydroxy-2-naphthoic acid] returned a cell viability of 0.737. For `CCOC(=O)[C@H](CCc1ccccc1)N[C@@H](C)C(=O)N(CC(=O)O)C1Cc2ccccc2C1` [Delapril Hydrochloride], the cell viability came to 1.14. Compound `OC(CCN1CCCCC1)(c1ccccc1)C1CCCCC1` (racemic) [DL-trihexyphenidyl hydrochloride] gave a cell viability of 0.964. In turn, `C[C@H](Cn1cnc2c(N)ncnc21)OCP(=O)(O)O` [Tenofovir] yielded a cell viability of 1.05. Turning to `N#CC(=Cc1cc(Cl)cc(Cl)c1)c1cccnc1`, the cell viability is 0.973. To `COC(=O)Nc1ccc(-c2nc(N3CCOCC3)c3cnn(C4CCN(C(=O)OC)CC4)c3n2)cc1` belongs 0.855; to `COC(=O)N[C@H](C(=O)N[C@@H](Cc1ccccc1)[C@@H](O)CN(Cc1ccc(-c2ccccn2)cc1)NC(=O)[C@@H](NC(=O)OC)C(C)(C)C)C(C)(C)C` [Atazanavir], 0.89. To `N.N.O=C([O-])C[O-].[Pt+2]` [Nedaplatin] belongs 0.894. `NCCCC(O)(P(=O)(O)O)P(=O)(O)O` [Alendronate sodium hydrate] returned a cell viability of 1.

The compound `Cc1ccnc(NS(=O)(=O)c2ccc(N)cc2)n1` [Sulfamerazine] gave a cell viability of 0.882.

`COc1ccc(C[C@H](N)C(=O)N[C@H]2[C@@H](O)[C@H](n3cnc4c(N(C)C)ncnc43)O[C@@H]2CO)cc1` [Puromycin dihydrochloride] displayed a cell viability of 0.945.

`O=C(O)Cc1cccc(OCCCN(Cc2cccc(C(F)(F)F)c2Cl)CC(c2ccccc2)c2ccccc2)c1`: the cell viability is 0.83. `Oc1ccccc1N=Cc1c(O)ccc2ccccc12` came in with a cell viability of 1.15. In the case of `C[C@]1(c2nc3c(C(N)=O)cccc3[nH]2)CCCN1` [Veliparib], the cell viability was determined as 0.89. Then `C[C@]1(c2nc3c(C(N)=O)cccc3[nH]2)CCCN1` [Veliparib dihydrochloride], with 0.96. In turn, `CC(=O)N[C@@H](CS)C(=O)O` [Acetylcysteine] displayed a cell viability of 1.06. Take `O=c1cc(-c2ccccc2)oc2cc(O)c(O)c(O)c12` [Baicalein]: the cell viability was determined as 0.999. To `CN1CCN(c2ccc(Nc3ncc4cc(C#N)c(=O)n(C5CCCC5)c4n3)cc2)CC1` belongs 1.05; to `CN(C)CCn1nnnc1SCC1=C(C(=O)O)N2C(=O)[C@@H](NC(=O)Cc3csc(N)n3)[C@H]2SC1` [Cefotiam hydrochloride], 0.916.

`O=c1[nH]c2cc(C(F)(F)F)ccc2n1-c1cc(C(F)(F)F)ccc1O` had a cell viability of 1.05. In turn, `COc1cc(C2Oc3cc([C@H]4Oc5cc(O)cc(O)c5C(=O)[C@@H]4O)ccc3OC2CO)ccc1O` (stereo partly specified) [Silibinin] showed a cell viability of 1.05. Then `C[C@@H](C(=O)Nc1ccc(Cl)cc1)[C@H]1CC[C@@H](c2ccnc3ccc(F)cc32)CC1` [Linrodostat], with 0.991; and `Cc1c(C)c2c(c(C)c1O)CCC(C)(C(=O)O)O2` (stereo unspecified) [Trolox], with 0.82; and `COc1ccc(S(=O)(=O)Nc2ccccc2C=Cc2ccncc2)cc1`, with 0.541. `Cn1ccnc1` [Saccharin 1-methylimidazole (SMI)]: the cell viability is 1.04.

As to `CS(=O)(=O)c1ccc(-c2cnc(NCc3ccco3)n3cnnc23)cc1`, the cell viability was 0.904. `O=C1CCC[C@@H]2[C@H]3CCC[N+]4([O-])CCC[C@@H](CN12)[C@@H]34` (stereo partly specified) [Oxymatrine] came in with a cell viability of 0.953. Then `CCn1nc(C2CCN(C(=O)CCO)CC2)nc1-c1cnc(N)c(-c2nnc(C(C)(C)C)o2)n1`, with 1.01; and `C[C@@H]1O[C@@H](OC[C@H]2O[C@@H](Oc3c(-c4ccc(OCCO)c(OCCO)c4)oc4cc(OCCO)cc(O)c4c3=O)[C@H](O)[C@@H](O)[C@@H]2O)[C@H](O)[C@H](O)[C@H]1O` [Troxerutin], with 1.18; and `CC[C@@H](C)c1ccc(NC(=O)Cn2cnc3c2c(=O)n(C)c(=O)n3C)cc1` (racemic), with 0.874. `N#Cc1ccc(COC[C@H]2O[C@@H](n3c(NCc4ccc(Cl)c(Cl)c4)nc4c(N)ncnc43)[C@H](O)[C@@H]2O)cc1` yielded a cell viability of 0.889. To `C[C@]12C=CC(=O)C=C1CC[C@H]1[C@@H]3C[C@@H](O)[C@](O)(C(=O)CO)[C@@]3(C)C[C@H](O)[C@@]12F` [Triamcinolone] belongs 0.845. To `CC(=O)O[C@H]1C[C@@H]2CC[C@@H]3[C@H](CC[C@@]4(C)[C@H]3C[C@H]([N+]3(C)CCCCC3)[C@@H]4OC(C)=O)[C@@]2(C)C[C@@H]1N1CCCCC1` [Vecuronium bromide] belongs 0.789. Regarding `O=C(O[C@@H]1Cc2c(O)cc(O)cc2O[C@@H]1c1ccc(O)c(O)c1)c1cc(O)c(O)c(O)c1` [(-)-Epicatechin gallate], the cell viability was 0.98.

In the case of `O=C(NCc1cccc(O)c1)c1cc2cc(F)ccc2[nH]1`, the cell viability was found to be 0.955.

`Cc1coc2c1C(=O)C(=O)c1c-2ccc2c1CCCC2(C)C` [Tanshinone IIA] gave a cell viability of 0.868. On to `Cc1cc2c(C(N)=O)cccc2n1-c1nc2c(c(NCc3ccccc3)n1)COCC2`, for which the cell viability stood at 0.923.

For the compound `CO/N=C(\C(=O)N[C@@H]1C(=O)N2C(C(=O)[O-])=C(C[N+]3(C)CCCC3)CS[C@H]12)c1csc(N)n1` [Cefepime Dihydrochloride Monohydrate], the cell viability is 0.889. Then `NCC1CCN(c2nccc(-c3ccc4ccccc4c3)n2)CC1`, with 1; and `CNCCCC12CCC(c3ccccc31)c1ccccc12` [Maprotiline hydrochloride], with 1.1. To `O=C1Cc2c([nH]c3ccc(Br)cc23)-c2ccccc2N1` [KenPaullone] belongs 0.957; to `COc1cccc(C(=O)COc2ccc(CC3SC(=O)NC3=O)cc2)c1` (stereo unspecified), 0.911; to `COc1ccc2c(c1)c(CC(=O)N1CCOCC1)c(C)n2C(=O)c1ccc(Cl)cc1`, 0.891.

In turn, `O=C(NCCN1CCOCC1)c1ccc(Cl)cc1` [Moclobemide] gave a cell viability of 1.05.

In the case of `O=C(c1ccc(/C=C/c2n[nH]c3ccccc23)cc1)N1CCNCC1`, the cell viability stood at 0.838. To `C/C(=C\C(=O)Nc1ccccc1C(=O)O)c1ccc2ccccc2c1` belongs 0.942.

On to `C[C@H](Cc1cc2c(c(C(N)=O)c1)N(CCCO)CC2)NCCOc1ccccc1OCC(F)(F)F` [Silodosin], for which the cell viability is 0.973. To `CN(C)CCOc1ccc(-c2nc(-c3ccncc3)c(-c3ccc4c(c3)CC/C4=N\O)[nH]2)cc1` belongs 1.12; to `O=C(O)C1=CO[C@@H](O[C@@H]2O[C@H](CO)[C@@H](O)[C@H](O)[C@H]2O)[C@@H]2C(CO)=CC[C@H]12` [Geniposidic Acid], 1.17; to `CCCCCNC(=N)N/N=C/c1c[nH]c2ccc(OC)cc12` [Tegaserod maleate], 0.913. Then `NS(=O)(=O)c1cc(Cl)c(Cl)c(S(N)(=O)=O)c1` [Dichlorphenamide], with 1; and `CS(=O)(=O)c1ccc(-c2cnc(N)c(C(=O)Nc3ccccc3)n2)cc1`, with 1.01; and `COc1c(C)c2c(c(O)c1C/C=C(\C)CCC(=O)O)C(=O)OC2` [Mycophenolic acid], with 1.07. In the case of `O=C(Oc1ccccc1C(=O)O)c1ccccc1O` [Sasapyrine], the cell viability worked out at 1.03. `CC(C)(O)c1ccc2c(c1)ncn2-c1cccc(-c2ccccc2C#N)c1` showed a cell viability of 0.923. In turn, `CN1c2ccccc2C(=O)Nc2cnc(Nc3ccc(N4CCC(O)CC4)cc3)nc21` came in with a cell viability of 0.863.

`O=C(O)CCCCC(CCSCc1ccccc1)SCc1ccccc1` (stereo unspecified) yielded a cell viability of 1.03. Compound `CC1(C)CC[C@]2(C(=O)O)CC[C@]3(C)C(=CC[C@@H]4[C@@]5(C)CC[C@H](O)C(C)(C)[C@@H]5CC[C@]43C)[C@@H]2C1` [Oleanolic Acid] showed a cell viability of 1.15. Then `O=c1c(-c2ccc(O)cc2)coc2cc(O)ccc12` [Daidzein], with 1.18; and `Cc1cc(Nc2cc(N)ncn2)c(=O)n2c1C(=O)NC21CCCCC1`, with 0.907; and `CC(C)(C)c1nc(-c2cccc(NS(=O)(=O)c3c(F)cccc3F)c2F)c(-c2ccnc(N)n2)s1` [Dabrafenib], with 1.02.

`C[C@H]1O[C@@H](n2cc(F)c(=O)[nH]c2=O)[C@H](O)[C@@H]1O` [Doxifluridine]: the cell viability came out at 0.809. To `Nc1c(CC(=O)O)cccc1C(=O)c1ccc(Br)cc1` [Bromfenac sodium] belongs 0.888. Compound `COc1cc2c(cc1OCCCN1CCCC1)N=C(N)C21CCC1` came in with a cell viability of 1.02. `CN(C/C=C/c1ccccc1)Cc1cccc2ccccc12` [Naftifine hydrochloride] showed a cell viability of 0.898. Then `CC(C)CN(CC(=O)N1CCN(CC(OCc2ccc3ccccc3c2)c2ccc(Cl)cc2Cl)CC1)CC(C)C` (stereo unspecified), with 1.12; and `Cn1nccc1Nc1nccc(-c2cc3c(s2)C(C)(C)N(CCN2CCOCC2)C3=O)n1`, with 1.06. For `CC(=O)CCCCn1c(=O)c2c(ncn2C)n(C)c1=O` [Pentoxifylline], the cell viability was 1.22.
